# Results: the supplement of paper PMC11417369
# The list shows a part of the results.
# Test system: PF3D7_0420300 AP2 domain 1 (GST-tagged)
# Test: gcPBM binding intensity (ln(normalized median fluorescence intensity)); higher = stronger DNA binding
# Summary of the method: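 GST-tagged P. falciparum DNA-binding domains, expressed in E. coli (about 25 μg on average), were applied for 1 h to an Agilent 4 × 180k array of primer-extended double-stranded 36-bp intergenic genomic probes plus negative controls. The binding buffer was 1× PBS with 1% milk, 0.2 mg/ml BSA, 0.5% salmon testes DNA and 0.03% Triton X-100. Bound protein was detected with Alexa488 anti-GST antibody and scanned at 488 nm. Binding intensity is the highest Masliner-normalised natural-log median intensity across replicate spots of either probe orientation.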
row,Sequence,gcPBM binding intensity (ln)
1,CTTATATTTGGACACACACACAATAAAATGAAAAAA [CACACA_site6614],9.99
2,AAATCTTCATAATAAAGTACTTAACTCTTGGTGTTA [XGTACX_site6112],9.04
3,TACACAAGAAAATTCACACACACACCGATATATATA [CACACA_site6008],10.1
4,AAAAAAAAAAAAAAAACATGCAGTTAGTGGTTTTTT [TGCATGCA_site243],9.25
5,AATAAATGGAAAAGGTGTACACAAAAAAAAGGGAAA [XGTACX_site4956],9.71
6,GAAATGGGTAAACATACACACACACCGATATATATA [CACACA_site8610],9.93
7,AAAAATTTCTATTTTTGTACTTACTTTTTAGTAATA [XGTACX_site5236],8.94
8,TAACAATTATGCTGGTGTACGTTTGAAATTGGGTAT [XGTACX_site6846],9.33
9,AACATCAAAATATGCACACAAACAATTAGCGGTAGT [CACACA_site2521],9.89
10,ATATTTTATTTTTAAAGTACAAAAGAAAAGAATAAT [XGTACX_site8247],9.27
11,GATTTACATTTTGATGAAAATAATAAAATGTGGAAA [TGCATGCA_negctrl_site409],9.04
12,AAAAAAAAAGACAAAAGTACAAAGGTTCATAATTTA [XGTACX_site3978],9.21
13,TGTACAAATATGTACACACACACATATTTATTTATA [CACACA_site6419],9.86
14,AAAAAACAAAAAAATACACACATAAAAAGGTTTTAG [CACACA_site3584],9.68
15,TTATAAGATGATTATAAAATCAAATTCATTCTTTTA [CACACA_negctrl_site1338],8.6
16,AAATATGTCAAATATACACACATAATAAATATAATA [CACACA_site2310],9.52
17,TAAACATAACAAAGGAGTACAAAACTTGATCAGTTC [XGTACX_site3114],9.52
18,TATGTATAAAAATAATGTACAAAATATATTATATGT [XGTACX_site2794],9.51
19,ATCTTAGTTGAAATATAGAATTTATAATAAAAGTTA [GTGCAC_negctrl_site122],8.87
20,ATACTATAATAATACACACTCATTAGATATATAAAG [CACACA_site7787],9.55
21,TGTATTTATTAATGTACACACATGCGTATGTTCGTT [CACACA_site5892],9.61
22,GAAGGAAATAAATCAACACACATATATTATATATAT [CACACA_site2188],9.57
23,TATATAATATATTTATGTACGTATTTAAAAATTTAT [XGTACX_site160],9

row,Sequence,gcPBM binding intensity (ln)
1,TGAAATTTGTTATATGCATGTAAAATATTACGACGA [TGCATGCA_site201],9.18
2,TTGTGTGAGCAAGTAGTGCATAATATAAATAAAAAA [GTGCAC_site9802],9.26
3,CATAAATATTTGTGTTGTACAAATATATATATTTAT [XGTACX_site7363],9.2
4,AAAATTGAAGGTAGAAGTACATATTTATTTCAATAA [XGTACX_site8732],9.11
5,ATAGAATATTTTATTACACACAGAATAATAAAAAAT [CACACA_site6190],9.49
6,TTATTTTTTTTAGCATATACAAATATATATATATAT [GTGCAC_negctrl_site4],9.12
7,CTAAAAGGATGATGAATGCACTATTATTTATATGGA,9.12
8,AAGAATTATTTTTTATGTACTTATATGTCAATTTTC [XGTACX_site6676],9.3
9,CACAGACACGGACACACACACATATATATATATATA [CACACA_site5248],9.86
10,ATACACACATATATGTGTACATATACATATATATAT [XGTACX_site6744],9.64
11,ATAATATGAAGAAGCACACTCAATTAAATACAGATA [CACACA_site4690],9.42
12,AACAAAATAGGGAACACACACATGTCGATATATAAA [CACACA_site7265],9.88
13,ATATTCTAAATAAAGGGTACACAAAAATAATTAAAG [XGTACX_site5529],9.47
14,ATTGTGGATATTCTTACACACAAATTTATATATAAA [CACACA_site2601],9.43
15,TTATGAATACTTCAAGTGCATTTATTTTATATGACA,9.1
16,TATTTGTAATATTATACACACATTATGTATTACAAA [CACACA_site3386],9.37
17,TTTTGTATATTATATGTACACACAATAAGTTAATAT [CACACA_site8207],9.52
18,TATGAACTTTTGGGGGTGCCTTAAAATGTATATTCT,9.48
19,ATATATATATAAAGCAGTACACACATTTATTTTAGA [XGTACX_site7226],9.57
20,TCCCAATTTATTATGTGTACTTATTATATACATATA [XGTACX_site4033],9.44
21,TATCAAAGTAGAAGAGATCGATGTCATATTGTGATG [GTGCAC_negctrl_site42],9.3
22,TTATATTTCAATTAAACATGCATTTTTGTGTAGCAC [TGCATGCA_site214],8.93
23,TCATATAGATTATACACACACATATATAGATATATA [CACACA_site6587],9.69

row,Sequence,gcPBM binding intensity (ln)
1,TTATATATTTTATTATTTATAATCTTTTTTTTATTT [CACACA_negctrl_site112],9.21
2,CAAAAGCGATACGGCACACATTTCCTGTTTAAATGA [CACACA_site5519],9.26
3,TTAATTTTTAGAAGAACACACACATATATATTATGA [CACACA_site7969],9.59
4,AAATTGATTATAAATTGTACAAGAACATACAACCTT [XGTACX_site5986],9.32
5,TGTTCTCTTCTTTTTTATTTTCCAAAGTAATAAGTT [TGCATGCA_negctrl_site424],9.28
6,TATATATATTTATATGCATGTAATATATTTGTATTG [TGCATGCA_site323],9.27
7,AATTATTTTATGAAAAGTACACATTGTTTTAATTCT [XGTACX_site4506],9.11
8,TAAATAAGTATTACTAGTACACACAAGTTGTTAATC [XGTACX_site7074],9.47
9,AGAAAAAAGAGGGATACACACAAACATATATATATA [CACACA_site5269],9.96
10,CATAAATCAGCCATAACACACATACATAAATACATA [CACACA_site4380],9.67
11,TTAATTATAATTATATGTACGAACTTTTTTTTTTTT [XGTACX_site6586],9.14
12,CATTTTTTAATAATAGCACACAGGACATACAAAACA [CACACA_site1245],9.63
13,ACAGTATCTGGTAGCTGTACGAGTCGTAGAGTGTAG [XGTACX_site2011],9.19
14,AAAATATAAAGTATTTGTACATAATATATTTTTAAA [XGTACX_site3494],9.16
15,AATATATAAATAAATATATAAATAAATAATTGAAGC [CACACA_negctrl_site348],9.63
16,TTCATTAATGTGTAATGTACTTGTAATATGGGATTA [XGTACX_site3903],9.19
17,TGCTCATTCCTGTCATGTACATATTATATATATATA [XGTACX_site6890],9.64
18,GAAAATATGTAATAGTGTACACATATATATGTATAT [XGTACX_site306],9.33
19,ATATGAACATTTACATGTACATGTAAATGTAACACT [XGTACX_site4574],9.29
20,CACAAAAAGAAACACACACACATATATATATATATA [CACACA_site999],9.73
21,ATTCTAAATAATAAGAGTACAAATAATATGGAGAAG [XGTACX_site5209],9.35
22,TTGTTTTTTTTTTCTATAAGCATAAAAATGATATAA [XGTACX_negctrl_site356],8.82
23,TTTCTGTGTTTTGGTTGTACACACGCTACATTATAT [XGTACX_site5669],9.97

row,Sequence,gcPBM binding intensity (ln)
1,TTTATTTATTATTAAAGTACTAAATCATATAATTAT [XGTACX_site5727],8.95
2,AAATTAAAAAAATAATGTACATGTATTTATTATGTA [XGTACX_site2419],9.21
3,TTTTATTTCTTTGCACCATTTTAAATACAAACAAAT [CACACA_negctrl_site1553],9.24
4,TAAAACAATACTTTGTGCTTCTCTGGTTTTTTTTTT [GTGCAC_negctrl_site284],9.26
5,GCTTTTAAAATAATTGGTACACATGTATAAATTCAA [XGTACX_site2327],9.05
6,AGTATTCACTTAATATGTACATATTTATTATAAGAG [XGTACX_site3434],9.11
7,TGGTATATAAAACACACACACATATGTATTTATATA [CACACA_site4665],9.73
8,TTTTGCCTTTCTACTTGTACTTAAAATATTATAATT [XGTACX_site5483],9.55
9,ACTCCATAATATTGATGTACTATAATGCATTTATTT [XGTACX_site5562],9.59
10,TTATAGAATTTATTTACACACAAACATTTATACTTT [CACACA_site7592],9.56
11,TATTTATTTTCATATAGTACTTTTTTCAGGCATATA [XGTACX_site6691],9.09
12,TTTATTTATGTTGAAACATGCAAAAAGTTATTTATA [TGCATGCA_site716],8.81
13,TTCAAAAGCCGGATAACATGCAGTAGTAGAACAAAC [TGCATGCA_site413],9.7
14,TATATATATATTTTAACACACACATATATATATTTA [CACACA_site8892],9.63
15,ATGCTTTTTAAATGATTGCACTAGATTGTAATATGT [GTGCAC_site9666],9.24
16,ATATATATATATTGCACACACAATTATTATTATTAT [CACACA_site2299],9.61
17,TGTATGAAATATATTACACACATATAAAATCTATAT [CACACA_site6514],9.5
18,TTTTTAATTTTTTGTTGTACATATAATATATTATTA [XGTACX_site4903],9.23
19,TTGATGTTGGTAGGATGTACGGTACCGGTAAAGTTT [XGTACX_site7705],9.28
20,AAGCTTCATTAATATACACACATATATGCGTATATT [CACACA_site3695],9.51
